# Laboratory results taken from PMC6919601, “Identification of Plasmodium dipeptidyl aminopeptidase allosteric inhibitors by high throughput screening” (PLoS ONE, 2019).
# “And” between values parts separate entries of the source, which are not always exact repeats. Identical values can stand only once. About 230 (0.21%) of roughly 110,000 compounds showed an effect of 50% or more. The list shows a part of the results.
# Molecular target: DPAP1 (Plasmodium falciparum, UniProt Q8IIJ9)
# Test: primary screen, percent inhibition; read by cleavage of a fluorogenic dipeptide substrate; higher = more effect of the substance
# Set-up: species or system P. falciparum D10 trophozoite lysates; single well
# 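Further: 30 min substrate incubation versus DMSO and 10 µM JCP410 controls.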
# DPAP1, sequence (Q8IIJ9 whole entry, looked up): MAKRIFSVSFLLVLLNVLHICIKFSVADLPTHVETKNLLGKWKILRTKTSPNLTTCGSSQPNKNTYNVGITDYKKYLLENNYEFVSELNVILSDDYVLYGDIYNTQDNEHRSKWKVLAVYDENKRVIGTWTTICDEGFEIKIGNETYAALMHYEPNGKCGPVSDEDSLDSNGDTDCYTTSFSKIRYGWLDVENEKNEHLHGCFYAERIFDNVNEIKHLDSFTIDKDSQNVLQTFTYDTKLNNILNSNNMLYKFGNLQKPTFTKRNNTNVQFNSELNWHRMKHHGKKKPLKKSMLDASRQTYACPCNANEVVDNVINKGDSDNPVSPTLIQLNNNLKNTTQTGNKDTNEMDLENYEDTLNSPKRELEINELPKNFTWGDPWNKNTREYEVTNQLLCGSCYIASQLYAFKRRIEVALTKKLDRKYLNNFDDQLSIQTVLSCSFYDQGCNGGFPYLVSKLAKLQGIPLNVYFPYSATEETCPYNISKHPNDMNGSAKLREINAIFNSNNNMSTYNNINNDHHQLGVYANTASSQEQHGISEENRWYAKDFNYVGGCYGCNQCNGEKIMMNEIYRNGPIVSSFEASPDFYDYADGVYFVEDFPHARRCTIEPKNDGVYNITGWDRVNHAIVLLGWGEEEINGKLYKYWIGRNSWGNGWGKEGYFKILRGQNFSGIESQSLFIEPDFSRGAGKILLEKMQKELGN
row,Compound,% Inhibition @ 10 uM
1,CC1=NN(C(=O)c2ccc(COc3ccc4c(c3)CCC4)o2)C(O)(C(F)(F)F)C1 (stereo not shown),0.389%
2,CN1CCC(O)(c2ccc(Cl)cc2)C(C(=O)c2ccc(Cl)cc2)C1 (stereo not shown),5.15%
3,CCOC(=O)C1=C(Cn2ccc(C(F)(F)F)n2)NC(=O)NC1c1ccc2c(c1)OCO2 (stereo not shown),-0.403%
4,CC1CCC(N2CCN(c3cccc(Cl)c3)CC2)CC1 (stereo not shown),-0.0953%
5,O=C1CCCc2sc([N+](=O)[O-])cc2N1,3.9%
6,O=C1NC2(Nc3ccccc31)C(=O)N(Cc1ccccc1F)c1ccccc12 (stereo not shown),4.28%
7,O=C(NCc1cccnc1)c1ccc2c(c1)C1C3CCC(C3)C1C(c1ccccc1)N2 (stereo not shown),-8.95%
8,Cc1ccc(NC(=O)c2ccc(Br)o2)c(C)c1,-3.09%
9,CC1CN=C(Nc2ccccc2)S1 (stereo not shown),-5.16%
10,O=C1/C(=N\c2ccccc2)c2ccccc2N1CN1CCc2ccccc2C1,0.673%
11,Cc1ccc(-c2csc3ncnc(NCCC(=O)O)c23)cc1,1.52%
12,O=C(NC1CCCCC1NC(=O)c1cccs1)c1cccs1 (stereo not shown),2.95%
13,Cc1cc2nsnc2c2nsnc12,1.72%
14,CC1CCC2(CC1)C(C#N)C(=O)NC(=O)C2C#N (stereo not shown),-4.31%
15,COC(=O)c1cc2ccsc2n1Cc1nc(-c2ccc(OC)c(OC)c2)oc1C,-8.2%
16,CC[C@H](NC(=O)[C@H](CCC1CCCCC1)CC(=O)N1CCOCC1)C(=O)c1nnc(-c2ccccc2)o1,-6.98%
17,C=CCSc1nc(N)c2c3c(sc2n1)CCCC3,16.3%
18,Clc1cccc(N2CCN(Cc3ccc4ccccc4c3)CC2)c1,-0.127%
19,CN(C)C(=O)C(NC(=O)c1ccccc1)=C1CCCCC1,3.76%
20,CCCn1c(C)cc(C)c(C#N)c1=O,2.56%
21,CCOc1nc(-c2ccccc2)cc(-c2ccc(C)cc2)n1,0.827%
22,CCC(NC(=O)Nc1cccnc1)(C(F)(F)F)C(F)(F)F,0.986%
23,COc1cccc2c1NC1CC(C)CCC1C2(C)C (stereo not shown),-2.51%
24,COc1ccc(N2CCN(Cc3cc(OC)ccc3OC)CC2)cc1,0.605%
25,CCOc1ccc(-c2csc(NC(=O)CCCOc3ccc(Cl)cc3)n2)cc1,-1.25%

row,Compound,% Inhibition @ 10 uM
1,COc1cccc(C2C3=C(O)CC(C)(C)CC3=NC(C)=C2C(=O)Nc2c(F)cccc2F)c1OC (stereo not shown),-4.67%
2,COc1cc(C)c2c(=O)c(Oc3ccccc3)c(C(F)(F)F)oc2c1,-5.69%
3,COc1cc(OC)c(C2SCCCS2)cc1OC,-1.22%
4,CCOCCCNC(=O)Cn1nc(C)c2c(C)n(-c3ccccc3)nc2c1=O,-4%
5,CC(=O)Nc1nc2nc(C)c(Cl)c(O)n2n1,0.401%
6,O=C(CSc1cn(Cc2ccc(F)cc2)c2ccccc12)NCc1ccco1,3.8%
7,Brc1ccc(-c2cc(-c3ccccc3)nc(N3CCCC3)n2)cc1,-7.7%
8,CCOC(=O)c1c(C=O)c(C)n(Cc2ccccc2)c1C,-3.53%
9,COc1ccc(C(=O)Nc2sc3c(c2C(=O)O)CC(C)(C)OC3)cc1OC,1.61%
10,Cc1noc(C(=O)N2CC3(C)CC2CC(C)(C)C3)c1Cl (stereo not shown),-5.25%
11,CCn1c2ccccc2c2nnc(-n3nc(C)c(Cc4ccccc4)c3C)nc21,17.5%
12,NS(=O)(=O)c1ccc(CCNC(=O)NC23CC4CC(CC(C4)C2)C3)cc1,-2.85%
13,O=C(CCN1C(=O)c2ccccc2S1(=O)=O)Nc1ccccc1C(=O)O,-11.5%
14,CCOC(=O)c1nnn(-c2nonc2N)c1CSc1nc2cc(OCC)ccc2[nH]1,1.62%
15,Cc1cc(C)c2c(n1)sc1c(=O)n(Cc3ccccc3)nnc12,4.13%
16,C=CCn1c2ccccc2n2c(C(=O)OCC)c(C)nc12,-3.14%
17,O=C(NCCc1cccs1)c1cccc(Br)c1,-0.222%
18,O=C(Nc1ccccc1Br)c1ccc(Cl)cc1,-0.192%
19,CN1C2CCC1/C(=C\c1ccc(F)cc1)C(=O)/C2=C/c1ccc(F)cc1,-2.95%
20,Cc1ccccc1C1Oc2ccccc2C2CC(c3ccccc3O)=NN21 (stereo not shown),-1.68%
21,O=C(C1CCC(Cn2c(=O)[nH]c3ccsc3c2=O)CC1)N1CC=C(c2ccccc2)CC1 (stereo not shown),-4.06%
22,CCCCCCNc1nc(-c2ccc(OC)cc2)c(CCC(=O)O)s1,-0.671%
23,CN(Cc1ccccc1)S(=O)(=O)c1ccc(S(=O)(=O)N2CCN(CCC#N)CC2)cc1,-1.82%
24,N=C(CC1CC(=O)NC(=O)C1)C1=C(O)CCCC1=O,-1.06%
25,Cn1c(C(=O)NCCc2ccccc2)cc2oc3ccccc3c21,3%

row,Compound,% Inhibition @ 10 uM
1,O=C(CN1CC(=O)N2CCCC2C1=O)NCc1ccc2c(c1)OCO2 (stereo not shown),-3.49%
2,O=C(C1=C(O)C(=O)N(CCc2c[nH]cn2)C1c1ccc(Cl)cc1)c1ccc(F)cc1 (stereo not shown),4.31%
3,Cc1ccc(-c2nnc3n2N=C(c2ccc(O)c(O)c2)CS3)cc1,-1.17%
4,Cc1ccc2nc(NC(=O)C3CCCN(S(=O)(=O)c4ccc5nc(O)ccc5c4)C3)sc2c1 (stereo not shown),3.77%
5,O=[N+]([O-])c1ccc(CN2CCC(O)CC2)cc1,-3.65%
6,Cc1ccc2oc(=O)c3cnn(CC(=O)Nc4cc(-c5cccc(Cl)c5)no4)c3c2c1,-5.25%
7,Cc1nc2ccccc2c2oc(C(=O)NCCCN3CCN(Cc4ccccc4)CC3)cc12,-0.0115%
8,O=C(Cn1c(=O)n(CCc2ccccc2)c(=O)c2sc3ccccc3c21)NCc1ccccc1,-6.52%
9,COc1ccc(CCNC2=C(Cl)C(=O)N(CCc3ccc(OC)c(OC)c3)C2=O)cc1OC,1.96%
10,CCOc1ccccc1C1C(C(=O)OC)=C(C)N=C2C1=C(O)c1ccccc12 (stereo not shown),-3.14%
11,COc1ccc(-c2cc(C(F)F)n3ncc(C(=O)N4CCN(C(=O)c5ccco5)CC4)c3n2)cc1,2.46%
12,CCN(CC)S(=O)(=O)c1ccc(-c2csc(Nc3ccc(C)cc3)n2)cc1,-3.79%
13,CC1CC(C)CN(CCCn2cnc3c4cc(Cl)ccc4nc-3c2O)C1 (stereo not shown),-0.235%
14,CN(C)C(=O)Nc1ccc(Cl)c(Cl)c1,-5.51%
15,COC(=O)c1cc(S(=O)(=O)NCc2cc(OC)c(OC)c(OC)c2)cn1C,0.776%
16,CC(C)(C)C(=O)Nc1sc2c(c1C#N)CCCCC2,2.69%
17,CCOc1ccc(C(=O)N2CC(C)CC(C)C2)cc1 (stereo not shown),0.823%
18,CCOC(=O)C1CCN(Cc2cc(OC)c(OC)c(OC)c2)CC1,4.67%
19,O=C1S/C(=C\c2cccnc2)C(=O)N1c1ccc(Cl)cc1,1.96%
20,CCOc1cc(/C=C2/NC(=O)N(Cc3ccc(F)cc3)C2=O)c(Br)cc1OC,4.53%
21,CC1CCCCN1Cc1nc2c(c(=O)n(C)c(=O)n2C)n1Cc1ccc(F)cc1 (stereo not shown),-0.499%
22,COC(=O)C1=C(C)N(CCC2=CCCCC2)C(=O)/C1=C\c1ccccc1O,3.54%
23,CN(C)CCCNC(=O)c1ccc(-c2nn(C)c(=O)c3ccccc23)cc1,-3.23%
24,Cc1ccc(NC(=O)c2ccccc2OCC(=O)Nc2cccc(Cl)c2C)nc1,5.08%
25,CCN1CCN(C2CCC(c3ccccc3)CC2)CC1 (stereo not shown),1.88%

row,Compound,% Inhibition @ 10 uM
1,CCOC(=O)c1sc(C)nc1C1CCN(C(=O)OCC)CC1,-1.03%
2,CCCNC(=O)/C(=C/c1cn(S(=O)(=O)N(C)C)c2ccccc12)NC(=O)c1ccccc1,-0.0235%
3,O=C1S/C(=C\c2ccco2)C(=O)N1c1cccc(Cl)c1,-0.318%
4,CCOc1ccc(S(=O)(=O)Nc2ccccc2C(=O)NC2CCCCC2)cc1,-0.884%
5,COc1ccc(CNC(=O)c2cc(-c3ccco3)on2)cc1,0.628%
6,CCOC(=O)c1c(NC(=O)/C(C#N)=C\c2ccccc2F)sc2c1CCCC2,3.95%
7,CCOc1ccc(NS(=O)(=O)c2ccc(NC(=O)Nc3ccccc3)cc2)cc1,-7.17%
8,CC(=O)N/C(=C\c1ccccc1)C(=O)Nc1cc(C)ccc1C,-0.446%
9,COc1ccc(C=O)cc1Cn1c(C)cc(C)c(C#N)c1=O,-3.94%
10,C/C(CS(=O)(=O)c1ccc(Cl)cc1)=N/NC(N)=S,1.12%
11,CCOC(=O)c1c(C)[nH]c(C)c1C(C)=O,1.63%
12,Cc1cc(C)c(C(=O)/C=C/c2ccco2)c(O)n1,-0.591%
13,Cc1sc(NC(=O)Cc2ccccc2)c(C(N)=O)c1C,16.1%
14,O=C(O)CCCC(=O)Nc1ccc(Cl)cc1,-1.38%
15,Cn1c(=O)c2ncn(CC(=O)Nc3ccccc3O)c2n(C)c1=O,1.57% and 1.88%
16,Cc1ccc2c(CN3CCN(C(=O)c4ccco4)CC3)cc(=O)oc2c1,1.67%
17,CC(=O)Nc1cccc(NC(=O)CSc2nc(-c3cccs3)cc(-c3cccs3)c2C#N)c1,5.94%
18,CCOC(=O)C1=C(CN2CCN(C(=O)c3ccco3)CC2)NC(=O)NC1c1ccc(OC(C)C)cc1 (stereo not shown),-4.69%
19,CC(C)C1CC(CCN2CCCCC2)(c2ccccc2)CCO1 (stereo not shown),-1.85%
20,CCC(Nc1ccccc1N)=C1C(=O)N(C)C(=O)N(C)C1=O,-0.105%
21,CCOC(=O)CC1=CSC2=NCCN12,2%
22,N#Cc1c(N2C(=O)C3C4c5ccccc5C(c5ccccc54)C3C2=O)sc2c1CCCC2 (stereo not shown),-1.19%
23,CC(C)(C)NC(=O)CC(CC(=O)O)c1ccccc1 (stereo not shown),4.08%
24,CC1CCCCN1C(=O)Cn1cc(C(=O)C(F)(F)F)c2ccccc21 (stereo not shown),1.83%
25,CC1=CCC(COC(=O)CN2CCCCC2)CC1 (stereo not shown),5.77%
